Test results published in the supplement of paper PMC11417369.
The other results are listed elsewhere or left out.

System: PfAP2-HC AP2 domain (GST-tagged)
Experiment: gcPBM binding intensity (ln(normalized median fluorescence intensity)); higher = stronger DNA binding
Summary of the method: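 Plasmodium falciparum DNA-binding domains carrying a GST tag were expressed in E. coli and applied for 1 h, at about 25 μg on average, to an Agilent 4 × 180k array. The array held primer-extended double-stranded 36-bp intergenic genomic probes together with negative controls, and binding took place in 1× PBS with 1% milk, 0.2 mg/ml BSA, 0.5% salmon testes DNA and 0.03% Triton X-100. An Alexa488 anti-GST antibody detected bound protein, and the array was scanned at 488 nm. Binding intensity is taken as the highest Masliner-normalised natural-log median intensity across replicate spots of either probe orientation.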

Sequence	gcPBM binding intensity (ln)
TATTAATTATATTTATGTACATAATCATATTATTAT [XGTACX_site7938]	9.94
GGACACCTTCAAAACACACATACAAATAAATAGAAA [CACACA_site3305]	9.71
ATATAAATATATATATGTACATAATATATTATGTTT [XGTACX_site2806]	9.71
AATTTAACCACTAAAAGTACACACATATATACATAT [XGTACX_site8352]	10.1
TCCTTTTTACTACTAGTGCATTATTTACAAGGTCCG [GTGCAC_site9441]	9.47
TAGTTTTTTATATATTGTACTTAGAATATATTATAT [XGTACX_site3662]	9.62
ATATATATAAAATATTATATTAAAAAAAATAAAATA [GTGCAC_negctrl_site87]	9.59
AGGATAATATACAAAAGTACATAAAACTAAAAAAAC [XGTACX_site605]	9.88
AACATATATTTTGAAACACACACATATATAATATAC [CACACA_site8301]	10.1
AAAGAAAGAAAGAATACACACACACCGATATATATA [CACACA_site9246]	10.3
TTTTATATATAATTCACACAAAAAAGATACATAAGA [CACACA_site5332]	9.55
TAAGCAAAAATAATTACACACAAATTTATAAAAAAT [CACACA_site3377]	9.9
ATTTTGTTTTTTTTTGCACACCATAAGGAGTGTAGG [CACACA_site1414]	9.74
ATAAAAATATAATTGAGTACATATGAATAGTCCTAT [XGTACX_site6281]	9.57
ACAACACATATTCATCGTACATGTATTAGGAAGACA [XGTACX_site1859]	9.8
TATATAAAAATATGTTGTACGCATTTATAAATATAT [XGTACX_site3758]	9.55
ATTTTTTTTTTTTTTTTTTTTTTTTTTGAATTCACA [CACACA_negctrl_site982]	9.2
TATTTTTATTTATAACGTACGAAAAATGTATATAAT [XGTACX_site703]	9.5
GGTGTATGTTAAAGGAGTACATATATATATATATAT [XGTACX_site7727]	9.69
CATACACATTTCATATGTACATAGATTGAAGGGAAG [XGTACX_site116]	9.88
TAGTATTTATATGTTATATATATAAAATAATACAGT [XGTACX_negctrl_site571]	9.75
ATATCTAATAAAAATACACACACATATGATTTGTGA [CACACA_site8558]	10
TATATAGAATTATATGCATGTTCAAAAAAATACAAC [TGCATGCA_site431]	9.8

Sequence	gcPBM binding intensity (ln)
TTCTATTTTTTAAAAGTGCATATTATAAATATATAT	9.52
AATAGTTCTTGAACGTGTACATAAAATATAATTTAC [XGTACX_site11]	9.63
GAAATCTAAATAGAAACACACATATATAAATAAATA [CACACA_site7762]	9.86
TAAGGAAAAAGAAAAAGTACATTATATAATAAATAG [XGTACX_site3282]	9.65
CAAATATATGTTTTCACACACAAAAGAAATGAAACC [CACACA_site2162]	9.92
AAAAAAAATAAAATGAATAAATAAGAATTACATATT [CACACA_negctrl_site863]	9.56
GGATAGATCATTTACACACACAAAAAAAAAAAAAAA [CACACA_site2139]	9.81
ATAATATATTATTATAGTACTTTATTTTATTTTATG [XGTACX_site2387]	9.71
AATATATATATACATACATGCATACATATATATATA [TGCATGCA_site784]	9.67
AAAAAGAAGATATATACACACCAAAAAAAAAAAAAA [CACACA_site7471]	9.61
ATATGATGTAAAAGCACACATATATATATATATATA [CACACA_site4018]	9.69
TACTATAAAATGGAATGTACACATAAATATATCTAA [XGTACX_site6137]	9.64
GTTTATAACTATGTGTGTACACATTAATCGTTTTTC [XGTACX_site4364]	10.1
AATATATTTATATAGTGTACATTTTTTATATATGTA [XGTACX_site8142]	9.55
TATTAATTTTTATTATGTACATAAATAATTTATATT [XGTACX_site5456]	9.63
CACATACACATACACATACACACGCATAGAAACATA [CACACA_site2136]	10.5
TTGTATAAATATGTATGTATATAATATATGTAAAGA [TGCATGCA_negctrl_site93]	9.78
AAATCGTGTACATTGACACACATAATTTTTTTTATA [CACACA_site2463]	9.68
TAAAAAACTTCGTGTTCACACATGTACTATATTATT [CACACA_site4796]	9.73
ACCCATAAGATAATTACACACAATACATCCCTATAT [CACACA_site5262]	9.97
TTTTTTTTTTTTTGTTGTACATTAAATATATTATTA [XGTACX_site7254]	9.61
AAGCATATTATAAACACACACTGTATAAAGATATAT [CACACA_site6277]	10.1
AAGTATAACCTTTATAATAATGACATGACCGATTTT [CACACA_negctrl_site395]	9.65

Sequence	gcPBM binding intensity (ln)
ATATAACGAATAATTACACACTATAAAAAAAGATCT [CACACA_site2862]	9.99
TATAACCGAATGTGTACACAAAATAATGTTATATAT [CACACA_site5627]	9.92
ATAATACGAATTTGTAGTACATTTATAATAACATGA [XGTACX_site2614]	9.62
CTTTTAAATTATTTTTGTACATAATTATATATATAT [XGTACX_site4128]	9.7
AACTATAAATATAAATGTACACATATGTAATATATA [XGTACX_site6085]	9.84
AAAAGGAAAATTTTCTTAGTAACTGCATTAAGAGAT [GTGCAC_negctrl_site675]	9.71
TACTGTTTAAAATATAAACACACATTGTTTGCTTTA [CACACA_site8358]	9.91
TTTTAATAACCAATCCGTACATATAATCTTTATATT [XGTACX_site536]	9.59
TGGAAAAATAGGCACACACACATATATACATATATA [CACACA_site1297]	10.5
TAAAAGTTATAAGAGTGTACGTATATTTATATATCA [XGTACX_site2972]	9.63
TGAAAAATTACAAAAATAATAAAATGAAATAATAAA [GTGCAC_negctrl_site53]	9.64
TTATTATATTCTCCTTCACACACAAAAATATTTCAT [CACACA_site8738]	10.2
AGGACTAATATTTGAACACACATATAACATATACAT [CACACA_site7803]	9.93
CCTCTTTATTTTAATTGTACATTTTTGTAGGTTTTT [XGTACX_site7130]	9.94
AAAACAAACCCATTTACACACATAAATAAATCAATT [CACACA_site6126]	9.99
ATGTATATATATATATGTACTAATTAGTAATTTACG [XGTACX_site6276]	9.92
TCCTTTTTTTTGTAATGTACTTAGTTTGGTTATATG [XGTACX_site8208]	9.78
TATTTACATGTAAAAGGTACACACATTATATATACA [XGTACX_site2157]	9.86
TAAAATAAAACAAACACACACACACCCCCACAAAAA [CACACA_site3850]	10.8
TTTATTATTTTTTGTAGTACTTTATATAAAAGTTCT [XGTACX_site4494]	9.39
ATACACTTTTATATATCAATACATTATGTATTAAGT [CACACA_negctrl_site421]	9.73
TTGATTATAATTAGTACACACAAAATACATGCGGGG [CACACA_site2277]	9.97
AAATATATAATACATATGTAATATGCATATATATAT [GTGCAC_negctrl_site450]	9.72

Sequence	gcPBM binding intensity (ln)
TTTTTATTACTTCTCTGTACTCAGGAAAATAAATAT [XGTACX_site2092]	9.49
TGAATGTAAGAAAATACACACTAGTATAGTAACACC [CACACA_site5131]	10.1
TTTCGTAAACAAATTTGTACGTACAAATTTATAAAT [XGTACX_site8175]	9.49
TTTTTACTAATAAGATGTACATATATCCTAAGCATA [XGTACX_site251]	9.42
TACATACATACATACACACATACATATATATATATA [CACACA_site1387]	9.97
TCTTTTATTAGTAAAAGTACTTATATAAATATTATA [XGTACX_site5099]	9.48
ATAATATAATAAACGTGTACACAATTAAATTATTAT [XGTACX_site3491]	9.85
TGTTTTTTATTTAATTGTACGAATTAAAAAAAATAA [XGTACX_site3009]	9.1
AATATTCATATGCAGGTGCATTAATTTTTATTAATT	9.65
TTCCAACCATAGTATTCACACATTGTTTTATTCCAT [CACACA_site4927]	9.91
AATACTCTATTTTATAGTACATATATTATTAATCAC [XGTACX_site6622]	9.73
GAAAAAAAAAAAAATACACACAAATTGGTATATAAT [CACACA_site4369]	9.92
TATCAAATCCAAAGGGGTACATTTTGTTGTCCTAAT [XGTACX_site5575]	9.48
TAGCTCGTTCGGAGCACACACATATAAATAAATATA [CACACA_site7002]	9.71
ATAGACAGCGCACAAACACACAAACACGCACGCACA [CACACA_site6349]	10.2
TAGGGATTATACCACACACACATACCCATAAATATA [CACACA_site5719]	10.4
TATTAACAAAATTTTTAACACACAAAAAAAAAAAAA [CACACA_site8542]	9.59
CATAATATATTTTATGCATGCAAAGCAACCTTTTGA [TGCATGCA_site715]	9.55
TTTTTTGTTATATTTGTGCGCAAAAATTGCTGCTTG	9.63
AAAATTTATGTAAAATGTACATACATAAATAAAGAT [XGTACX_site4339]	9.9
